Laboratory results as given in the supplement of paper PMC12645437, “Orthogonal IMiD-Degron Pairs Induce Selective Protein Degradation in Cells” (ACS Chemical Biology, 2025).
The other results are listed elsewhere or left out.

B1: Q9UKT9 (peptide)
chain: FQCPICGRDFTQKGNLLRHIKL
B2: Q9UKT9 (peptide)
chain: FHCDICGAEFTQKGNLLRHIKL
B3: Q9UKT9 (peptide)
chain: LMCNQCGFNCTQKGNLLRHIKL
B4: Q9UKT9 (peptide)
chain: FMCEICGAVFTQKGNLLRHIKL
B5: Q9UKT9 (peptide)
chain: FWCPVCGANFTQKGNLLRHIKL
B6: Q9UKT9 (peptide)
chain: FFCSVCGHFFTQKGNLLRHIKL
B7: Q9UKT9 (peptide)
chain: FRCNQCGAVFTQKGNLLRHIKL
B8: Q9UKT9 (peptide)
chain: FHCNQCGRRFTQKGNLLRHIKL
B9: Q9UKT9 (peptide)
chain: FSCNVCGAMFTQKGNLLRHIKL
B10: Q9UKT9 (peptide)
chain: FSCDVCGADFTQKGNLLRHIKL
B11: Q9UKT9 (peptide)
chain: FSCDQCGAAFTQKGNLLRHIKL
B12: Q9UKT9 (peptide)
chain: FRCNVCGAWFTQKGNLLRHIKL
B13: Q9UKT9 (peptide)
chain: FKCDQCGANFTQKGNLLRHIKL
B14: Q9UKT9 (peptide)
chain: FCCNQCGHTFTQKGNLLRHIKL

These sequences were tested against no compound (DMSO) (assay: log2 fold change of degron read counts, EGFP-low vs EGFP+ sorted cells; higher = lower degron-EGFP level without compound (poor expression or instability)). Conditions: compound: DMSO control; 18 h.
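Further: jurkat cells carrying a lentiviral library of mutant zinc finger degrons fused to EGFP plus mCherry, mCherry+ cells FACS sorted, degron abundance counted by next-generation sequencing.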

| Sequence | log2 fold change of degron read counts |
| --- | --- |
| B1 | -0.943 |
| B2 | -1.62 |
| B3 | 0.226 |
| B4 | -0.834 |
| B5 | 0.409 |
| B6 | 1.48 |
| B7 | 0.0794 |
| B8 | 0.407 |
| B9 | -0.643 |
| B10 | -1.39 |
| B11 | -2.05 |
| B12 | 0.306 |
| B13 | -2.53 |
| B14 | -0.535 |
